Source: PubChem BioAssay AID1347073 (National Center for Advancing Translational Sciences (NCATS), 2019)
Screen size: about 45,000 compounds; about 200 (0.44%) were called active. About 7% were inconclusive and are not listed. Calls come from the whole dose curve; as a rule, active = well fitted activation curve with a large enough effect; inconclusive = small, poorly fitted or top-dose-only effect; inactive = no such curve, though single readings can be large or run the other way. Some of the results follow.

Experiment: qHTS of TDP-43 Inhibitors: NCGC Sytravon Library Screen; note: nearly all actives have a fitted effect of over 55% in size; for growth rescue (activation): 0% is about no effect
Details: yeast TDP-43 toxicity rescue, BacTiter-Glo growth, 24 h; series mostly up to 46.1 µM; growth rescue (activation): at the top concentration
Procedure, shortened: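 TDP-43-expressing yeast, pregrown in raffinose, seeded at OD600 0.02 in galactose medium with compound for 24 hr at 30 deg C. Growth read by BacTiter-Glo luminescence, so rescue of toxicity appears as activation.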
Potency is the fitted concentration of half-maximal effect.

Structure (SMILES)	growth rescue (activation)	Potency
COc1cc([N+](=O)[O-])ccc1NC(=O)CCCOc1cc(C)ccc1C	inactive: 3.75%	
COc1cc(NC(=O)CN2C(=O)C(c3ccc(C)cc3)=NC23CCCCC3)cc(OC)c1	inactive: 24.2%	
COc1ccc(C2CC(=O)C(C=NCCN3CCN(C(=S)Nc4ccccc4)CC3)=C(O)C2)cc1 (centres undefined)	inactive: 16.6%	
O=C(CCSCCc1ccccn1)Nc1cc(F)ccc1F	inactive: 9.72%	
O=C1NN(c2ccc(F)cc2)C(=O)/C1=C\C=C\c1ccco1	inactive: -6.23%	
COC(=O)c1cccc(N(CC(=O)NC2CCCCC2)C(=O)CNC(=O)c2cccs2)c1	inactive: 10.1%	
O=[N+]([O-])c1ccc(CNC2CCCc3ccccc32)cc1 (centres undefined)	inactive: 2.74%	
N#CCCN(C1CCCCC1)S(=O)(=O)CCOc1ccccc1	inactive: -1.69%	
CC(=O)Nc1ccc(S(=O)(=O)N2CCC(=O)Nc3ccccc32)cc1	inactive: 3.96%	
Cc1cc(N/N=C/c2ccncc2)nc2ccccc12	inactive: 2.25%	
O=C(NNC(=S)Nc1ccc(OC(F)F)cc1)c1cc2c(s1)CCCC2	inactive: 5.86%	
N#CCc1ccc(Oc2ncc(C(F)(F)F)cc2Cl)cc1	inactive: -17.8%	
CCCOc1nc(N)c(C#N)c(-c2ccccc2F)c1C#N	inactive: 13%	
O=C(NCC(=O)N1CCN(C(=O)c2ccco2)CC1)c1ccc(Br)cc1	inactive: -2.68%	
CCNC(=O)C1(C)CCN(C(=O)c2ccc(OC)c(OC)c2)C1 (centres undefined)	inactive: 2.76%	
COC(=O)c1ccc(-c2noc(CN(C)CC3CCCCO3)n2)cc1 (centres undefined)	inactive: -8.57%	
O=C(NC(=S)N1CCCCC1CO)c1cccs1 (centres undefined)	inactive: -15.8%	
Cc1ccsc1CN(C(=O)c1ccc(OCC(C)C)cc1)C1CCS(=O)(=O)C1 (centres undefined)	inactive: 27.8%	
COc1ccc(S(=O)(=O)CCc2nnc(NC(=O)c3ccc(F)cc3)s2)cc1	inactive: 14.2%	
CCOc1cc(C)c(Cl)cc1S(=O)(=O)n1ccnc1	inactive: -9.04%	
COc1ccc(CSc2n[nH]c(C)n2)cc1[N+](=O)[O-]	inactive: 8.8%	
COc1ccc(C(C#N)N2N=C(C)CC2c2ccccc2)cc1 (centres undefined)	inactive: -3.42%	

Structure (SMILES)	growth rescue (activation)	Potency
COCCNC(=O)c1cccc(NC(=O)C2=C(C)OCCS2)c1	inactive: -5.7%	
COc1ccc2[nH]c(C)c(C(=O)CN3CCc4cc(OC)c(OC)cc4C3)c2c1	inactive: -4.37%	
O=C(C1CCN(S(=O)(=O)c2ccccc2)CC1)N1CCCCCC1	inactive: 6.9%	
CCNc1c(C(=O)O)ccc2c1C(=O)c1ccccc1C2=O	inactive: -1.54%	
COc1ccc(OC)c(CN2CCN(C(=O)CNC(=O)c3ccccc3F)CC2)c1	inactive: -0.198%	
O=C(NCc1ccc(F)cc1)C1Cc2ccccc2CN1C(=O)c1ccco1 (centres undefined)	inactive: -3.75%	
CCOC(=O)C(=O)N(Nc1ccc(C)cc1)c1ccc(C)cc1	inactive: 17%	
CCOc1ccccc1N(CC(=O)NC1CCCCC1)S(=O)(=O)c1ccc(C)cc1	inactive: 25.1%	
NC(N)=N/N=C/c1ccc(OCc2ccccc2)c(OCc2ccccc2)c1	inactive: -0.103%	
C/C(=C/C(=O)N1CCc2ccccc21)C(=O)O	inactive: 16.5%	
COc1ccc(S(=O)(=O)N2CCN(C3CCCC(C)C3)CC2)cc1 (centres undefined)	inactive: 9.28%	
O=C1c2ccccc2C(=O)N1CCCCSc1nnc2ccccn12	inactive: 21.5%	
COc1ccc(/C=N/N2CCOCC2)cc1O	inactive: 14.4%	
OC[C@@H]1CN(CCN2CCOCC2)C[C@H](n2cnc3c(NC4CCC4)ncnc32)O1	inactive: 14.1%	
Cc1cc(NC(=O)c2ccc3c(c2)OCO3)ccc1NC(=O)c1ccccc1	inactive: 8.75%	
O=C(O)c1ccccc1SSc1ccccc1C(=O)O	inactive: -2.9%	
Cc1ccc(/C=N/NC(=O)c2nc3nc(C)cc(C)n3n2)cc1	inactive: -30.9%	
CC(C)c1ccc(OCc2ccc(C(=O)N(C)C)o2)cc1	inactive: 24.5%	
Cn1c(=O)c2ccccc2n(CC(=O)NCCC2=CCCCC2)c1=O	inactive: -8.28%	
COc1ccccc1NC(=O)COC(=O)C1CC2CCCC(C1)C2=O (centres undefined)	inactive: 14.1%	
Cc1cc(NC(=O)C2CC(=O)N(c3ccccc3Cl)C2)no1 (centres undefined)	inactive: 2.88%	
CCOc1cc(Br)cc(/C=N/NC(=O)c2cccnc2)c1O	inactive: -8.84%	

Structure (SMILES)	growth rescue (activation)	Potency
CCOc1ccccc1NC(=O)C(C)CC (centres undefined)	inactive: 17.7%	
O=C(CCCOc1ccc(Cl)cc1)Nc1cccc(C(=O)O)c1	inactive: -1.93%	
COc1cc2[nH]c(Cl)c([N+](=O)[O-])c2cc1OC	inactive: 20.6%	
CC(=O)c1ccc(NC(=O)Cn2c(=O)oc3ccccc32)cc1	inactive: 8.37%	
CCN(CC)S(=O)(=O)c1ccc(C)c(C(=O)Oc2cccc(-c3cnc4ccccc4n3)c2)c1	inactive: 7.86%	
Cc1nc2nc(C)c(NS(=O)(=O)c3ccc(C(C)(C)C)cc3)c(=O)n2[nH]1	inactive: 2.14%	
COc1cc(C=O)ccc1Oc1nnnn1-c1ccccc1	inactive: 5.88%	
C/C(CC(=O)Nc1ccc2c(c1)OCO2)=N\NC(=O)c1ccc(N)cc1	inactive: 9.5%	
CC(NC(=O)C1CCC(C(C)(C)C)CC1)C(c1ccccc1)N1CCOCC1 (centres undefined)	inactive: 19.5%	
Cc1cccc(-c2noc(CCC(=O)NCCc3ccccc3)n2)c1	inactive: 23.6%	
Cc1onc(C(=O)Nc2c(C)n(C)n(-c3ccccc3)c2=O)c1[N+](=O)[O-]	inactive: -7.4%	
Cc1ccc(NC(=O)c2ccc(=O)[nH]n2)cc1C	inactive: 8.75%	
CC(C)C1CC(CCN2CCCCC2)(c2ccccc2)CCO1 (centres undefined)	inactive: -8.23%	
COc1ccccc1CNC(=O)C1CCC(=O)N1C(C)C (centres undefined)	inactive: 5.36%	
Cn1c(=O)c2c(ncn2CC(=O)Nc2nccs2)n(C)c1=O	inactive: -7.06%	
Cc1ccccc1N(CC(=O)NC(C)(C)C)C(=O)CS(=O)CC(=O)Nc1ccc2c(c1)OCO2 (centres undefined)	inactive: -14.2%	
COC(=O)C1(NC(=O)NC23CC4CC(CC(C4)C2)C3)CCCCC1	inactive: -0.0316%	
CS(=O)(=O)c1ccc(NCCc2ccc(S(N)(=O)=O)cc2)c([N+](=O)[O-])c1	inactive: 8.34%	
COc1cc(/C=C/c2cc(C(=O)O)c3ccccc3n2)cc(OC)c1O	inactive: 0.61%	
CCCOc1ccc(NC(=O)C(=O)NCCCn2ccnc2)cc1	inactive: -5.42%	
CCN(CCNC(=O)C1CCN(S(=O)(=O)c2c(C)noc2C)CC1)c1ccccc1	inactive: -10.6%	
C(=N\Nc1nc2ccccc2[nH]1)/c1ccncc1	inactive: -4.05%	

Structure (SMILES)	growth rescue (activation)	Potency
COC(=O)CC(N)c1ccc(Br)cc1 (centres undefined)	inactive: -4.39%	
Cc1cccc(NC(=O)c2ccc(NCCO)c([N+](=O)[O-])c2)n1	inactive: 3.22%	
CN(C)c1ccc(C2C=C(c3ccc(Cl)cc3OC(F)F)Nc3ncnn32)cc1 (centres undefined)	inactive: 21.9%	
CCCCCCC(=O)NNC(=O)c1c(O)c2ccccc2n(CC)c1=O	inactive: -45.6%	
Cc1ccnc(NC(NC(=O)C(C)C)(C(F)(F)F)C(F)(F)F)c1	inactive: -6.85%	
CC1CCN(S(=O)(=O)N2CCCC(C(=O)NCc3ccc(F)cc3)C2)CC1 (centres undefined)	inactive: -4.93%	
CC(=O)OCCCNc1cc(Sc2ccc(Cl)cc2)c2nonc2c1[N+](=O)[O-]	inactive: -22.9%	
O=C(c1ccc(C(F)(F)F)cc1)C1CCCN(C(=O)c2cnccn2)C1 (centres undefined)	inactive: 6.24%	
COC(=O)c1cc(C(=O)NCCN2C(=O)S/C(=C\c3cccs3)C2=O)cc([N+](=O)[O-])c1	inactive: 3.54%	
Cc1ccc(CN2CCC(n3nccc3NC(=O)c3ccc4c(c3)OCO4)CC2)o1	inactive: -6.64%	
CCN(C(=O)Cc1c(C(=O)O)[nH]c2ccccc12)c1ccc(OC)cc1	inactive: 3.18%	
Fc1ccccc1NC(=S)N1CCN(Cc2ccc3c(c2)OCO3)CC1	inactive: -8.27%	
CC(C)c1ccc(OCCCCN2CCCCC2)cc1	inactive: -38.1%	
COc1cc(CNC(=O)Nc2nc(C(N)Cc3ccc(Cl)cc3)cs2)cc(OC)c1OC (centres undefined)	inactive: 8.15%	
Cc1nc2ccc(-c3nc4ccccc4[nH]3)cc2[nH]1	inactive: -0.81%	
Clc1ccccc1-c1nnc(-c2ccc3c(c2)OCO3)o1	inactive: 7.34%	
CCCC(C(=O)NC(C)(C)CC)N(Cc1ccco1)C(=O)CNS(=O)(=O)c1ccccc1 (centres undefined)	inactive: -3.73%	
COc1ccc(NC(=O)c2ccc3c(c2)C(=O)N(CC2CCCO2)C3=O)cc1 (centres undefined)	inactive: 11.4%	
Clc1ccc2nc(-c3ccccc3)nc(C(Cl)Cl)c2c1	inactive: 1.67%	
COc1ccc(-c2csc(NCc3ccco3)n2)cc1C		active: 17.8 µM
NC(=O)c1ccc(C(=O)c2ccc([N+](=O)[O-])cc2)cc1	inactive: 17.2%	
CCN(CC)C(=O)/C(=C/c1cccc([N+](=O)[O-])c1)NC(=O)c1ccco1	inactive: 5.28%	

Structure (SMILES)	growth rescue (activation)	Potency
Cc1cc(C(=O)Cn2nc(C(=O)O)c3ccccc3c2=O)c(C)n1-c1ccc(F)cc1	inactive: 4.07%	
CC(C)Cn1c(N)c(C(=O)COC(=O)c2ccc(F)cc2)c(=O)n(C)c1=O	inactive: 21.3%	
O=C(NCc1cccnc1)C(=O)Nc1ccc([N+](=O)[O-])cc1	inactive: 6.93%	
O=C(N/N=C/c1ccccc1O)NC12CC3CC(CC(C3)C1)C2	inactive: 1.09%	
Cc1nc2nc(C)c(NS(=O)(=O)c3ccc(C4CCCCC4)cc3)c(=O)n2[nH]1	inactive: 15.2%	
Cc1ccc(CN2CCN(Cc3ccccn3)CC2CCO)cc1 (centres undefined)	inactive: 11.7%	
CC(=O)c1ccc(N2Cc3ccccc3/C2=N\C(=O)Nc2ccccc2)cc1	inactive: -27.1%	
CCOC(=O)/C(=N\Nc1cc(Cl)ccc1Cl)N1CCOCC1	inactive: -8.84%	
O=C(O)c1cccnc1-c1ncccc1C(=O)O	inactive: 27.3%	
O=C(O)/C=C/C(=O)c1ccc(O)cc1	inactive: -41.5%	
Cc1ccc(-n2c([S-])c(C(=O)NC(C)c3ccccc3)[n+]3ccccc23)cc1 (centres undefined)	inactive: 9.72%	
CN(C)S(=O)(=O)c1cc(NC(=O)c2cc(=O)c3ccccc3o2)ccc1Cl	inactive: -2.37%	
CCOC(=O)C1=C(CC)Nc2ccccc2N/C1=N\S(=O)(=O)c1ccc(C(=O)OCC)cc1	inactive: 6.12%	
CC(=O)c1ccc(NC(=S)Nc2ccc3[nH]c(=O)[nH]c3c2)cc1	inactive: 9.24%	
COc1ccc(C(=O)NC2CCN(C(=S)Nc3ccccc3C)CC2)cc1	inactive: 4.27%	
Cc1cc(C)nc(NNC2=CC(=O)CC(C)(C)C2)n1	inactive: -10.3%	
COC(=O)c1ccc(C)c(NC(=O)CCn2[nH]c(=O)ccc2=O)c1	inactive: -2.3%	
CC1CCCN(c2c3c(nc4ccccc24)CCCC3)C1 (centres undefined)	inactive: -0.496%	
O=C1Cc2ccccc2C(=O)N1c1ccccc1	inactive: 3.44%	
COc1cc(NC(=O)c2ccc(OC)c([N+](=O)[O-])c2)ccc1NC(=O)c1ccco1	inactive: -4.8%	
COC(=O)c1sc(NC(=S)NC(=O)c2ccccc2F)nc1C	inactive: -7.99%	
